By IC50 is meant the dose at which the fit gives 50% viability; fits outside the tested doses are given as limits. AUC is the area under the same curve over the 256-fold range up to the top dose, as a fraction; it is 1 without any effect and falls as sensitivity rises. The top dose, if marked as inferred, was calculated from the reported fits.
What follows are cell lines tested with CC1=C(C(=O)Nc2cc3cn[nH]c3cc2F)C(c2ccc(C(F)(F)F)cc2)CC(=O)N1 [GSK429286A] (assay: Viability of human cancer cell lines after 72 h of drug (GDSC screen)). Conditions: top dose inferred.
Experimental: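 Human cancer cell lines in 384-well plates, medium with 10% serum, drug for 72 h over a 256-fold dose range (nine 2-fold or five 4-fold steps up to the top dose). Adherent lines were fixed and stained with the nucleic acid dye Syto60, suspension lines read with resazurin; signal relative to control wells, capped at 0 and 100%. One two-parameter sigmoid per drug and line, fitted in a mixed model over all curves with the slope shared within a line.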

Row | Cell Line | AUC | IC50 [µM]
1 | MS751 (cervix, adherent, top dose 20 µM) | 0.988 | > 20
2 | MS-1 (small cell lung carcinoma, suspension, top dose 20 µM) | 0.983 | > 20
3 | MSTO-211H (mesothelioma, adherent, top dose 20 µM) | 0.991 | > 20
4 | MV-4-11 (leukaemia, suspension, top dose 20 µM) | 0.736 | 5.05
5 | MY-M12 (leukaemia, suspension, top dose 20 µM) | 0.683 | 4.36
6 | MZ1-PC (pancreas, adherent, top dose 20 µM) | 0.967 | > 20
7 | MZ2-MEL (melanoma, adherent, top dose 20 µM) | 0.971 | > 20
8 | MZ7-mel (melanoma, adherent, top dose 20 µM) | 0.978 | > 20
9 | Mewo (melanoma, adherent, top dose 20 µM) | 0.974 | > 20
10 | Mo-T (hairy cell leukaemia, suspension, top dose 20 µM) | 0.988 | > 20
11 | NALM-6 (B-cell leukaemia, suspension, top dose 20 µM) | 0.756 | 5.86
12 | NAMALWA (Burkitt lymphoma, suspension, top dose 20 µM) | 0.962 | > 20
13 | NB5 (neuroblastoma, adherent, top dose 20 µM) | 0.963 | > 20
14 | NB6 (neuroblastoma, adherent, top dose 20 µM) | 0.854 | > 20
15 | NB7 (neuroblastoma, adherent, top dose 20 µM) | 0.977 | > 20
16 | NB10 (neuroblastoma, adherent, top dose 20 µM) | 0.982 | > 20
17 | NB12 (neuroblastoma, adherent, top dose 20 µM) | 0.956 | > 20
18 | NB13 (neuroblastoma, adherent, top dose 20 µM) | 0.967 | > 20
19 | NB14 (neuroblastoma, adherent, top dose 20 µM) | 0.986 | > 20
20 | NB17 (neuroblastoma, adherent, top dose 20 µM) | 0.982 | > 20
21 | NB69 (neuroblastoma, adherent, top dose 20 µM) | 0.945 | > 20
22 | NB(TU)1-10 (neuroblastoma, adherent, top dose 20 µM) | 0.993 | > 20
23 | NB-4 (acute myeloid leukaemia, suspension, top dose 20 µM) | 0.942 | > 20
24 | NCC021 (kidney, adherent, top dose 20 µM) | 0.845 | 18.2
25 | NCI-H23 (lung adenocarcinoma, adherent, top dose 20 µM) | 0.854 | 15.4

Row | Cell Line | AUC | IC50 [µM]
26 | NCI-H28 (mesothelioma, adherent, top dose 20 µM) | 0.97 | > 20
27 | NCI-H64 (small cell lung carcinoma, suspension, top dose 20 µM) | 0.995 | > 20
28 | NCI-H69 (small cell lung carcinoma, suspension, top dose 20 µM) | 0.961 | > 20
29 | NCI-H82 (small cell lung carcinoma, suspension, top dose 20 µM) | 0.927 | > 20
30 | NCI-H187 (small cell lung carcinoma, suspension, top dose 20 µM) | 0.984 | > 20
31 | NCI-H196 (small cell lung carcinoma, adherent, top dose 20 µM) | 0.896 | > 20
32 | NCI-H209 (small cell lung carcinoma, suspension, top dose 20 µM) | 0.933 | > 20
33 | NCI-H211 (small cell lung carcinoma, adherent, top dose 20 µM) | 0.95 | > 20
34 | NCI-H226 (lung squamous cell carcinoma, adherent, top dose 20 µM) | 0.951 | > 20
35 | NCI-H292 (lung adenocarcinoma, adherent, top dose 20 µM) | 0.96 | > 20
36 | NCI-H322M (lung adenocarcinoma, suspension, top dose 20 µM) | 0.986 | > 20
37 | NCI-H358 (lung adenocarcinoma, adherent, top dose 20 µM) | 0.971 | > 20
38 | NCI-H441 (lung adenocarcinoma, adherent, top dose 20 µM) | 0.976 | > 20
39 | NCI-H446 (small cell lung carcinoma, semi-adherent, top dose 20 µM) | 0.97 | > 20
40 | NCI-H460 (large cell lung carcinoma, adherent, top dose 20 µM) | 0.99 | > 20
41 | NCI-H510A (small cell lung carcinoma, semi-adherent, top dose 20 µM) | 0.981 | > 20
42 | NCI-H520 (lung squamous cell carcinoma, adherent, top dose 20 µM) | 0.969 | > 20
43 | NCI-H522 (lung adenocarcinoma, adherent, top dose 20 µM) | 0.947 | > 20
44 | NCI-H524 (small cell lung carcinoma, suspension, top dose 20 µM) | 0.956 | > 20
45 | NCI-H526 (small cell lung carcinoma, suspension, top dose 20 µM) | 0.979 | > 20
46 | NCI-H596 (lung adenocarcinoma, adherent, top dose 20 µM) | 0.961 | > 20
47 | NCI-H630 (large intestine, adherent, top dose 20 µM) | 0.987 | > 20
48 | NCI-H647 (non-small cell lung carcinoma, adherent, top dose 20 µM) | 0.941 | > 20
49 | NCI-H650 (lung adenocarcinoma, adherent, top dose 20 µM) | 0.943 | > 20
50 | NCI-H661 (large cell lung carcinoma, adherent, top dose 20 µM) | 0.955 | > 20

Row | Cell Line | AUC | IC50 [µM]
51 | NCI-H716 (large intestine, suspension, top dose 20 µM) | 0.927 | > 20
52 | NCI-H720 (lung carcinoid, suspension, top dose 20 µM) | 0.992 | > 20
53 | NCI-H727 (lung carcinoid, adherent, top dose 20 µM) | 0.962 | > 20
54 | NCI-H747 (large intestine, adherent, top dose 20 µM) | 0.955 | > 20
55 | NCI-H748 (small cell lung carcinoma, suspension, top dose 20 µM) | 0.978 | > 20
56 | NCI-H810 (large cell lung carcinoma, adherent, top dose 20 µM) | 0.955 | > 20
57 | NCI-H838 (lung adenocarcinoma, adherent, top dose 20 µM) | 0.986 | > 20
58 | NCI-H841 (small cell lung carcinoma, adherent, top dose 20 µM) | 0.959 | > 20
59 | NCI-H847 (small cell lung carcinoma, adherent, top dose 20 µM) | 0.817 | 8.57
60 | NCI-H1048 (small cell lung carcinoma, adherent, top dose 20 µM) | 0.989 | > 20
61 | NCI-H1092 (small cell lung carcinoma, suspension, top dose 20 µM) | 0.973 | > 20
62 | NCI-H1155 (large cell lung carcinoma, suspension, top dose 20 µM) | 0.987 | > 20
63 | NCI-H1299 (large cell lung carcinoma, adherent, top dose 20 µM) | 0.977 | > 20
64 | NCI-H1304 (small cell lung carcinoma, suspension, top dose 20 µM) | 0.946 | > 20
65 | NCI-H1355 (lung adenocarcinoma, adherent, top dose 20 µM) | 0.959 | > 20
66 | NCI-H1395 (lung adenocarcinoma, adherent, top dose 20 µM) | 0.961 | > 20
67 | NCI-H1417 (small cell lung carcinoma, suspension, top dose 20 µM) | 0.83 | 16
68 | NCI-H1435 (lung adenocarcinoma, semi-adherent, top dose 20 µM) | 0.988 | > 20
69 | NCI-H1436 (small cell lung carcinoma, suspension, top dose 20 µM) | 0.952 | > 20
70 | NCI-H1437 (lung adenocarcinoma, adherent, top dose 20 µM) | 0.976 | > 20
71 | NCI-H1563 (lung adenocarcinoma, adherent, top dose 20 µM) | 0.971 | > 20
72 | NCI-H1568 (lung adenocarcinoma, adherent, top dose 20 µM) | 0.967 | > 20
73 | NCI-H1573 (lung adenocarcinoma, adherent, top dose 20 µM) | 0.983 | > 20
74 | NCI-H1581 (large cell lung carcinoma, semi-adherent, top dose 20 µM) | 0.983 | > 20
